Assay results: PubChem BioAssay AID624417 (National Center for Advancing Translational Sciences (NCATS), 2012)
Values joined by “and” are separate entries in the source; they are usually repeats but may differ in a detail not shown here. Identical values can stand only once. The campaign covered roughly 410,000 compounds. About 6,400 (1.6%) were called active. The shares of active, inactive and inconclusive entries below differ from those in the screen. Calls follow the shape of the dose curve; as a rule, active = well fitted inhibition curve with a large enough effect; inconclusive = small, poorly fitted or top-dose-only effect; inactive = no such curve, though single readings can be large or run the other way. Potencies beside an inconclusive call are fits to weak or partial responses and may not hold up.

target: Glucagon-like peptide 1 receptor (Homo sapiens) (UniProt P43220); experiment: qHTS of GLP-1 Receptor Inverse Agonists (Inhibition Mode); conditions: HEK293 GLP-1R CRE-luciferase, luminescence, 24 h, GLP-1R form is constitutively active; activity change, negative = inhibition: at 38.3 µM (top of the series) unless noted; also: nearly all actives have a fitted effect of over 55% in size
Sequence of UniProt P43220 (P43220 whole entry, looked up): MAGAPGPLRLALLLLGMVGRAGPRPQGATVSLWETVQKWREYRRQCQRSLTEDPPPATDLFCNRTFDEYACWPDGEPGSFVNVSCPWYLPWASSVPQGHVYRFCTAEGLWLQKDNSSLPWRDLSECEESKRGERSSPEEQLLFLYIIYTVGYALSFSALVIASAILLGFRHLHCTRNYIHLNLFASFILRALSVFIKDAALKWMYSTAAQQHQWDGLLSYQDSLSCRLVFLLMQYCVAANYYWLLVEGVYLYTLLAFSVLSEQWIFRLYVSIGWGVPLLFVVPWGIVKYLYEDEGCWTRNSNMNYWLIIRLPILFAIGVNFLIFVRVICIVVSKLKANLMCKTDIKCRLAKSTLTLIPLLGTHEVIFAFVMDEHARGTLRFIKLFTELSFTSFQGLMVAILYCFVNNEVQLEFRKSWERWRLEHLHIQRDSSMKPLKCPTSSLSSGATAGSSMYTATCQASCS
Outline: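 Constitutively active GLP-1R drives a cAMP-responsive luciferase in stably transfected HEK293 cells; test compounds are added after overnight (12 h) attachment and left 24 hr, and signal loss in luminescence marks inhibition.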
% is scaled to controls: 0 for no effect and ±100 for the full control effect; potency is read from the fitted curve at half-maximal effect; tags tell the direction and shape of the fitted curve.

Potency, inconclusive:
COc1ccc(C(=O)Nc2nnc(SCC(=O)NC3CC3)s2)cc1 14.1 µM [inhibitor, partial curve, poor fit]
O=C(COc1c(Cl)cccc1Cl)Nc1ccccc1N1CCCC1 14.1 µM [inhibitor, single point]
CC1CCCN(S(=O)(=O)c2ccc(NC(=O)C3CCN(C(=O)c4ccco4)CC3)cc2)C1 (configuration not stated) 10 µM [inhibitor, partial curve, poor fit]
Cc1cccc(C)c1OCc1cc(C(=O)N2CC3C[C@@H]4CC2C[C@H](C3)C4)no1 2.82 µM [inhibitor, full curve, poor fit]
COC(=O)c1c(NC(=O)c2ccccc2)sc(C(=O)c2ccccc2)c1C 31.6 µM [inhibitor, single point]
CCn1c(SCC(=O)c2c[nH]c3ccccc23)nnc1-c1cccs1 1.26 µM [inhibitor, full curve, poor fit]
CC(C)(C)c1ccc(OCCC(=O)Nc2cccc(S(=O)(=O)N3CCCC3)c2)cc1 8.91 µM [inhibitor, partial curve, poor fit]
CCOC(=O)[C@]12CCC=C1N(Cc1cccc3ccccc13)C(=O)[C@H](CC(=O)N1CCCCC1)C2 10 µM [inhibitor, partial curve]
COc1nccc(C(F)(F)F)c1C(=O)NC(=O)Nc1ccccc1 31.6 µM [inhibitor, single point]
Cc1cc2ccccc2c(=O)n1CC(=O)Nc1ccc2c(c1)OCCO2 31.6 µM [inhibitor, partial curve, poor fit]
O=C(C1CCC(CNS(=O)(=O)c2cccs2)CC1)N1CCN(c2ccc(Cl)cc2)CC1 (configuration not stated) 3.98 µM [inhibitor, partial curve, poor fit] and 7.94 µM [inhibitor, partial curve, poor fit]
CC(C)NC(=O)c1onc(CSc2ccc(F)c(F)c2)c1C(=O)NC(C)C 28.2 µM [inhibitor, single point]
CC(C)c1ccc(NC(=O)c2cc(S(=O)(=O)NC3CCCCC3)ccc2F)cc1 7.08 µM [inhibitor, partial curve, poor fit]
C#Cc1ccc(CN2CCN(CCc3ccccc3)C(CCO)C2)cc1 (configuration not stated) 15.8 µM [inhibitor, partial curve, poor fit]
COc1ccccc1CNC(=O)C(=O)NCCC1CCCCN1S(=O)(=O)c1ccc(C)cc1 (configuration not stated) 2.51 µM [inhibitor, partial curve, poor fit]
Cc1ccccc1/C=C1\Sc2ccc(C(=O)N3CCN(c4ccccn4)CC3)cc2N(C)C1=O 10 µM [inhibitor, partial curve, poor fit]
CC(C)CCOP(=O)(c1ccc(N(C)C)cc1)C(O)c1ccc(N(C)C)cc1 (configuration not stated) 10 µM [inhibitor, partial curve, poor fit]
COc1ccc(Cl)cc1NC(=O)COC(=O)CC(C)(C)CC1=NS(=O)(=O)c2ccccc2N1 12.6 µM [inhibitor, single point]
O=C(Cn1c(=O)oc2ccccc21)NCCc1ccccc1Cl 22.4 µM [inhibitor, single point]
C/C(=N\O)c1ccc2c3c([nH]c2c1)CCCC3 28.2 µM [inhibitor, single point]
COc1cccc(CNC(=O)CCC2CCCN(C(=O)c3cccc4c(C)c(C)[nH]c34)C2)c1 (configuration not stated) 28.2 µM [inhibitor, single point]
Cn1c(CC(=O)Nc2ccccc2)nnc1SCCOc1ccccc1 28.2 µM [inhibitor, single point]
Cc1ccc(C2(c3ccccc3)NC(=O)N(CC(=O)NCc3ccco3)C2=O)cc1C (configuration not stated) 15.8 µM [inhibitor, partial curve, poor fit]
CCOc1nc(-c2ccccc2)c2cc(C)ccc2n1 28.2 µM [inhibitor, single point]
COc1ccc(-c2cc(C(=O)N3CCN(c4ccccc4O)CC3)c3ccccc3n2)cc1OC 28.2 µM [inhibitor, single point]
Cc1ccccc1-n1c2nc(=O)[nH]c(=O)c-2cc2c(Cl)cccc21 11.2 µM [inhibitor, partial curve, poor fit]
Cc1cccc(Cn2c(SCc3ccc(C(=O)NCc4cccs4)cc3)nc3cccnc32)c1 28.2 µM [inhibitor, single point]
CCCNC(=O)c1ccc(N2CCC3(CC2)CC(c2cccc(Br)c2)=NO3)c(NC(=O)c2cccc(OC)c2)c1 14.1 µM [inhibitor, single point]
CCOc1ccc(-n2nnnc2SCC(=O)Nc2cccc(O)c2)cc1 28.2 µM [inhibitor, single point]
O=C(NCc1cccs1)c1csc2c1CCCCC2 28.2 µM [inhibitor, single point]
COC(=O)C1=C(C(=O)OC)[C@@H]2N(Cc3ccccc3)c3ccccc3[C@@]23C[C@@H](C(=O)OC)N(C(=O)c2ccc(Br)cc2)C3=N1 12.6 µM [inhibitor, single point]
Cc1ccc(-c2csc(C(O)c3ccc(F)cc3)n2)cc1C (configuration not stated) 10 µM [inhibitor, single point]
CCCC(=O)Nc1ccc(NC(=S)NC(=O)c2cccs2)cc1 12.6 µM [inhibitor, single point]
O=C(N1CCN(Cc2ccccc2)CC1)C12CC3CC(CC(C3)C1)C2 12.6 µM [inhibitor, partial curve, poor fit]
O=[N+]([O-])c1ccc(Nc2ccccc2F)nc1 10 µM [inhibitor, partial curve, poor fit]
CCOc1cc(CN2CCN(c3cccc(C(F)(F)F)c3)CC2)ccc1O 20 µM [inhibitor, single point]
Cc1ccccc1NC(=O)c1onc2c1CCCC2 12.6 µM [inhibitor, single point]
Cc1ccc(OCCNc2cc(N3CCN(CCO)CC3)ccc2[N+](=O)[O-])cc1C 28.2 µM [inhibitor, single point]
OCC1OC(n2ccc3c(NO)ncnc32)C(O)C1O (configuration not stated) 2 µM [inhibitor, full curve, poor fit]
CC(NC(=O)/C=C/c1cnc2ccccc2n1)C12CC3CC(CC(C3)C1)C2 (configuration not stated) 28.2 µM [inhibitor, single point]
Oc1ccccc1-c1nc(/C=C/c2ccccc2)nn1-c1ccccc1 28.2 µM [inhibitor, single point] and 12.6 µM [inhibitor, partial curve, poor fit]
CCN1CCn2c3c(c4cc(Cl)ccc42)CCCC31 (configuration not stated) 10 µM [inhibitor, partial curve]
Cn1c(CC2C(=O)Nc3ccc(Br)cc32)nc2ccccc2c1=O (configuration not stated) 0.316 µM [inhibitor, full curve, poor fit]
CCN(CC)C(=O)COC(=O)c1cc(-c2ccc(OC)cc2)nc2ccccc12 11.2 µM [inhibitor, partial curve, poor fit]
COc1ccc(-c2cc(C(F)(F)F)nc(NCc3cccs3)n2)cc1 4.47 µM [inhibitor, full curve, poor fit]
CCN1CCN(c2ccc(S(=O)(=O)N3CCCCC3)cc2NC(=O)CC(C)c2ccccc2)CC1 (configuration not stated) 12.6 µM [inhibitor, single point]
COc1ccc(C(C)(O)c2nc(-c3cccs3)cs2)cc1 (configuration not stated) 14.1 µM [inhibitor, single point]

Potency, active:
CN(C)CCCN(Cc1ccccc1)C(=S)Nc1ccc(SC(F)F)cc1 11.2 µM
O=S(=O)(c1ccccc1)N1CCC(O)(CSc2ccccc2)CC1 10 µM

Activity change, negative = inhibition, inactive:
CC(=O)Nc1ccccc1/C=C/c1ccc2c(C)cc(C)c(O)c2n1 0.265%
O=C(CCc1ccc(O)c(O)c1)N/N=C/c1ccc2c(c1)OCO2 66.1%
CN(C)c1ccc(CNc2ncnc3sccc23)cc1 -1.84%
CCN(CC)CCCNC(=O)C(C)n1nc(C)n2c(cc3occc32)c1=O (configuration not stated) -13.5%
COC(=O)c1cc(C)nc2c1c(=O)nc(SCc1cccc(C(F)(F)F)c1)n2C1CC1 1.17%
CCOC(=O)c1c(C)[nH]c(C)c1S(=O)(=O)N1CCCC(C(=O)Nc2ccc(OC)c(OC)c2)C1 (configuration not stated) 22.2%
N/C(Cc1ccccc1Sc1ccccc1)=N\O -22.7%
CCCc1[nH]nc2c1C(c1ccc(OCCN3CCOCC3)c(OC)c1)C(C#N)=C(N)O2 (configuration not stated) -11.8%
O=C(NC(=S)NCC1CCCO1)c1ccccc1Br (configuration not stated) -0.492%
CC1CCN(c2nn3c(=O)c(C(=O)NCCc4ccc(Cl)cc4)cnc3s2)CC1 6.79%
Cc1nc(-n2nc(C)c(CCC(C)C)c2C)sc1C(=O)Nc1cccc(Cl)c1C 15.6%
CN(C)c1cc(C(=O)N(C)c2ccccc2)ncn1 16.4%
CCOC(=O)c1c(NC(=O)c2ccccc2C)sc2c1CCCC2 9.41%
